Sequences and labels used below:
B1: TPR 5TU (parent)
chain: GGAUCUUCUCGAUCUAACAAAAAAGACAAAUCUGCCACAAAGCUUGAGAGCAUCUUCGGAUGCAGAGGCGGCAGCCUUCGGUGGCGCGAUAGCGCCAACGUUCUCAACUAUGACACGCAAAACGCGUGCUCCGUUGAAUGGAGUUUAUCAUG

This sample is rich in variants without activity.

In the data set the parent is B1. Nature of the data set: polymerase ribozyme fitness, log enrichment relative to wild type (log ratio); higher = more active; in vitro selection for triplet polymerase activity. The method in brief: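 A single round of triplicate in vitro selection, including frozen incubation at −7 °C, was applied to PCR-built, transcribed mutant libraries of each subunit of a heterodimeric triplet polymerase ribozyme. Illumina sequencing of input and output libraries retained genotypes with ≥10 input reads and ≥1 read per output. Fitness is the base-2 logarithm of genotype enrichment divided by wild-type enrichment, from inverse-variance-weighted replicate averages.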
With C10U A28U G94A U127G, the “polymerase ribozyme fitness (log ratio)” value is -4.04.

Turning to C10U A49U G67A U77A A91G G100A U134G, the “polymerase ribozyme fitness (log ratio)” value is no more than -4.2. In the case of C10A G88U C95A U134A it was no more than -4.2. In the case of C10U C54U G71U C85A C96G G133C U145G G152A it was no more than -4.2.

On to C10G A24U U45G C57U C75G C103G G126U, for which the “polymerase ribozyme fitness (log ratio)” value is no more than -4.2. Then C10G U82C C96U A98G U104G C116A U134A, with no more than -4.2; and C10G A29U C43U A52C A66C C96U C99G, with no more than -4.2. In the case of C10A C87U C116G C118U U127C A142G it was no more than -4.2.

On to C10U G141A, for which the “polymerase ribozyme fitness (log ratio)” value is -2.07. For C10A C85G C125A, the “polymerase ribozyme fitness (log ratio)” value is no more than -4.2. Then C10U C35A U45G G100U A107G U135C, with no more than -4.2. In the case of C10G A23C G34A A37G U55A U82G G83U G94A C118G U144C C149G it was no more than -4.2; in that of C10U G67C G88A U144A A150U, no more than -4.2; in that of C10G A20G A21U C35U G92A C114U U146A, no more than -4.2.

Consider C10A C32G C38U U56G A60G C95A C131U G140U, for which the “polymerase ribozyme fitness (log ratio)” value was -4.19. Then C10G G68C A73G, with no more than -4.2. In the case of C10U A16U U55A G83C U104G it was no more than -4.2; in that of C10G G68A G94U C96A C125G, no more than -4.2; in that of C10A U13G A22U A113C U146G, no more than -4.2. In the case of C10G G94A A115C U139A it was no more than -4.2; in that of C10G A29C C54A U55G G88A G92U G124U, no more than -4.2; in that of C10U G25U A29U C87A, no more than -4.2. For the variant C10G U13G A16C U56A G92C C105A C114U, the “polymerase ribozyme fitness (log ratio)” value was no more than -4.2. In the case of C10U C32A C51G A106G A142C U148A it was no more than -4.2; in that of C10A U44A C85G A107U, no more than -4.2.

As to C10G G25U A52G C85U C149G, the “polymerase ribozyme fitness (log ratio)” value was no more than -4.2. For C10A C85U A91U C103U, the “polymerase ribozyme fitness (log ratio)” value is no more than -4.2.

Take C10U G84A U101A A115U A121G G124A: the “polymerase ribozyme fitness (log ratio)” value was no more than -4.2. Then C10U U33G A41C G48U G81A C114G U145G, with no more than -4.2. C10U U55A G84U: the “polymerase ribozyme fitness (log ratio)” value was -4.1.

Consider C10U A66G A91G A137G U144C U146C, for which the “polymerase ribozyme fitness (log ratio)” value is no more than -4.2.

As to C10A C93U G140C, the “polymerase ribozyme fitness (log ratio)” value is no more than -4.2.

For the variant C10A C38U U45G U61G G70A U78G C85G, the “polymerase ribozyme fitness (log ratio)” value was no more than -4.2. Then C10U A49G A52C G92U C103U A121G, with no more than -4.2; and C10U A28U A52G U56A A73C C93U U145C C149G, with no more than -4.2. Then C10U A16G A52C C57A C85G G124A, with no more than -4.2; and C10G C51G G65C A98U, with no more than -4.2; and C10U C14G A17G C85A C108G A113C, with no more than -4.2. Then C10A U55A A60G C69A C96U, with no more than -4.2; and C10U A29C A49C A60C C75G U77G, with no more than -4.2. Regarding C10G G11U U13G A40G, the “polymerase ribozyme fitness (log ratio)” value was no more than -4.2. In the case of C10A C72A C93U it was no more than -4.2; in that of C10G C35A G59U U61A G74U A107G C108U A119G, no more than -4.2. Then C10G U44G U56G C57U A66C C87U A106G A142U, with no more than -4.2.

Consider C10U C35U G68U G88A U90A, for which the “polymerase ribozyme fitness (log ratio)” value was no more than -4.2. In the case of C10U C14U C38U C103G U144G it was no more than -4.2.

C10A U56A C76U C87A A138G: the “polymerase ribozyme fitness (log ratio)” value was no more than -4.2.

For the variant C10U A20C G88C C108A, the “polymerase ribozyme fitness (log ratio)” value is no more than -4.2. Then C10U C54A C72U G84U A98U C125A, with no more than -4.2; and C10A C14U A30U C51A C57G G84A, with no more than -4.2.

As to C10U C27A C38G A39U G58A C87U U144A, the “polymerase ribozyme fitness (log ratio)” value is no more than -4.2. C10G U55G C103A: the “polymerase ribozyme fitness (log ratio)” value was no more than -4.2.

Turning to C10A U15G G58A G86U A98G A138U, the “polymerase ribozyme fitness (log ratio)” value is no more than -4.2. Then C10U A41C G74U A150U, with no more than -4.2; and C10G A12U A22G C35G G94A C95U C99A U111C, with no more than -4.2. On to C10G A28U C54U C85G C116U, for which the “polymerase ribozyme fitness (log ratio)” value was no more than -4.2.

On to C10U A19G A23C G94A C96U A107C C114U C118U, for which the “polymerase ribozyme fitness (log ratio)” value is no more than -4.2. Then C10U A22G A49G A142C, with no more than -4.2; and C10U C105A, with -3.59. Then C10G A16C U56G G100A, with no more than -4.2; and C10A C32A C54U C116A G143A, with no more than -4.2. In the case of C10G U13G C14U U33A A66C U134G it was no more than -4.2; in that of C10G A19U C85G A91G U148A, no more than -4.2. On to C10G G11C G68U A137U, for which the “polymerase ribozyme fitness (log ratio)” value is no more than -4.2. For C10G C85G A98U, the “polymerase ribozyme fitness (log ratio)” value is no more than -4.2. Then C10A C96U G143A, with no more than -4.2; and C10U U82A G86A C93A G133C A138C, with no more than -4.2; and C10U C57A C93U C99A U146G, with no more than -4.2. As to C10U C87U, the “polymerase ribozyme fitness (log ratio)” value is -2.87.

In the case of C10G C69G G83C, the “polymerase ribozyme fitness (log ratio)” value is no more than -4.2. In the case of C10G A16U C93A G141C A150G it was no more than -4.2; in that of C10A G42U U53A C76G U90G, no more than -4.2; in that of C10G A24U A52C G92U C103G A106C, no more than -4.2. Then C10G A26C C76A G83A, with no more than -4.2.

For the variant C10A C14U A26U A30G G84A U139G A142U, the “polymerase ribozyme fitness (log ratio)” value is no more than -4.2. In the case of C10G U31A G62A C75U A91C G92A C96G A122C C125A it was no more than -4.2; in that of C10A A52C G65U C69U C99U C103A, no more than -4.2; in that of C10U A17G A23C A24C A26G U31G A39U U44A C54G C57G G86U A97U A142C, no more than -4.2. Regarding C10G C57G G92C A113C G133A, the “polymerase ribozyme fitness (log ratio)” value was no more than -4.2.

In the case of C10A C36A G86A, the “polymerase ribozyme fitness (log ratio)” value was no more than -4.2. Turning to C10U A16C A22C U44G G83A A138G, the “polymerase ribozyme fitness (log ratio)” value is no more than -4.2.

In the case of C10G A17C C36U G48A A64U G88C C118G, the “polymerase ribozyme fitness (log ratio)” value was no more than -4.2.

For the variant C10G C14G A37G C54U C103A, the “polymerase ribozyme fitness (log ratio)” value was no more than -4.2.

For the origin of these results see the RNAGym collection of RNA variant scans (doi:10.1073/pnas.2313332121).
